Data as given in patent US8440649B2 (priority 2009, dated 2013).

Tested on: TGEV
Experiment: microbe, parasite or virus in culture
Conditions: Alphacoronavirus 1, 6 h, read-out: EC50 for inhibiting TGEV S and N protein expression

Compound | EC50 [µM]
COc1cc2c3c(c4cc(OC)c(OC)cc4c2cc1OC)CN1CCCCC1C3 (centres unmarked) [Compound 11] | < 0.1
COc1cc2c(cc1O)c1c(c3cc(OC)c(OC)cc32)CN2CCCCC2C1 (centres unmarked) [Compound 13] | < 0.1
COc1cc2c3c(c4cc(OC)c(OC)cc4c2cc1OC)C[N+]1([O-])CCCC1C3 (centres unmarked) [Compound 8] | < 0.5
COc1cc2c3c(c4cc(OC)c(OC)c(OC)c4c2cc1OC)CC1CCCN1C3 (centres unmarked) [Compound 22] | < 0.5
COc1cc2c3c(c4cc(OC)c(OC)cc4c2cc1OC)C(O)C1CCCCN1C3 (centres unmarked) [Compound 12] | < 0.1
COc1ccc2c(c1)c1c(c3cc(OC)c(OC)cc32)CC2CCCN2C1 (centres unmarked) [Compound 4] | < 0.1
COc1cc2c3c(c4cc(OC)c(OC)cc4c2cc1OC)C(O)C1CCCN1C3 (centres unmarked) [Compound 29] | < 0.5
COc1cc2c3c(c4ccc(O)c(OC)c4c2cc1OC)C(O)C1CCCN1C3 (centres unmarked) [Compound 42] | < 0.1
COc1cc2c3c(c4cc(OC)c(OC)cc4c2cc1OC)CN1CCCC1C3 (centres unmarked) [Compound 1] | < 0.1
COc1cc2c3c(c4cc(OC)c(OC)cc4c2cc1OC)C[N+]1([O-])CCCCC1C3 (centres unmarked) [Compound 18] | < 0.1
COc1ccc2c3c(c4cc(OC)c(OC)cc4c2c1)CN1CCCC1C3O (centres unmarked) [Compound 6] | < 0.1
COc1cc2c3c(c4cc(OC)c(OC)cc4c2cc1O)CN1CCCCC1C3 (centres unmarked) [Compound 14] | < 0.1
COc1cc2c3c(c4cc(OC)c(OC)cc4c2cc1O)CC1CCCCN1C3 (centres unmarked) [Compound 15] | < 0.1
COc1cc2c(cc1O)c1c(c3cc(OC)c(OC)cc32)CC2CCCCN2C1 (centres unmarked) [Compound 16] | < 0.1
COc1ccc2c(c1)c1c(c3cc(OC)c(OC)cc32)CN2CCCC2C1 (centres unmarked) [Compound 3] | < 0.1
COc1ccc2c3c(c4cc(OC)c(OC)cc4c2c1)CC1CCCN1C3 (centres unmarked) [Compound 5] | < 0.1
COc1cc2c(cc1O)c1c(c3cc(OC)c(OC)cc32)CN2CCCC2C1O (centres unmarked) [Compound 30] | < 0.1
COc1cc2c3c(c4cc(OC)c(OC)cc4c2cc1OC)CN1CCCCCC1C3 (centres unmarked) [Compound 20] | < 0.5
COc1ccc2c3c(c4cc(OC)c(OC)cc4c2c1)CN1CCCC1C3OC(C)=O (centres unmarked) [Compound 32] | < 0.5
COc1cc2c3c(c4cc(OC)c(OC)c(OC)c4c2cc1OC)CC1CCCCN1C3 (centres unmarked) [Compound 26] | < 0.5
COc1ccc2c3c(c4cc(OC)c(OC)cc4c2c1)CN1CCCCC1C3 (centres unmarked) [Compound 24] | < 0.5
COc1ccc2c3c(c4cc(OC)c(OC)cc4c2c1)CN1CCCC1C3 (centres unmarked) [Compound 2] | < 0.1
COc1cc2c3c(c4ccc(O)cc4c2cc1OC)C(O)C1CCCN1C3 (centres unmarked) [Compound 31] | < 0.1
